# Measured values as given in PubChem BioAssay AID624417 (National Center for Advancing Translational Sciences (NCATS), 2012).
# The whole screen tested about 410,000 compounds, of which about 6,400 (1.6%) were called active. This list was built around the results that the source calls inconclusive (neither active nor inactive); the mix of calls is not that of the screen. Calls follow the shape of the dose curve; as a rule, active = well fitted inhibition curve with a large enough effect; inconclusive = small, poorly fitted or top-dose-only effect; inactive = no such curve, though single readings can be large or run the other way. Potencies of inconclusive entries are left out as doubtful fits.
# Molecular target: Glucagon-like peptide 1 receptor (Homo sapiens) (UniProt P43220)
# Chain of UniProt P43220 (P43220 whole entry, looked up): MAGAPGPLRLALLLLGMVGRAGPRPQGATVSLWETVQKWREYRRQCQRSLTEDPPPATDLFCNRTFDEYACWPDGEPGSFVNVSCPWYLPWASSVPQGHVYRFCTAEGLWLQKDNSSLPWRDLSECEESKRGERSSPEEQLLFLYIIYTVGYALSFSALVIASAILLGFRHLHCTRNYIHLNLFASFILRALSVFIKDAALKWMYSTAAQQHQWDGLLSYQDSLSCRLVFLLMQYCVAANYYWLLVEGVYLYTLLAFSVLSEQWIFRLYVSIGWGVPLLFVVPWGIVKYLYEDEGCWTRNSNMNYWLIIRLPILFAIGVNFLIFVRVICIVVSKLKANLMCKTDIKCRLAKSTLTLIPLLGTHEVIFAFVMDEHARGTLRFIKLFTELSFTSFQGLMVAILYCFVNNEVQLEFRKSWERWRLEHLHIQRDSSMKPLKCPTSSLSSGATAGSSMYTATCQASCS
# Assay: qHTS of GLP-1 Receptor Inverse Agonists (Inhibition Mode); also: nearly all actives have a fitted effect of over 55% in size
# Conditions: HEK293 GLP-1R CRE-luciferase, luminescence, 24 h, GLP-1R form is constitutively active; series mostly up to 38.3 µM
# Procedure, shortened: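 Inverse agonists were sought by their lowering of basal cAMP reporter luciferase output in HEK293 cells stably carrying constitutively active human GLP-1R, after 24 h compound treatment.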
# Potency is read from the fitted curve at half-maximal effect; tags tell the direction and shape of the fitted curve.
row,Compound,Potency
1,O=C(c1cccs1)N(Cc1cccnc1)c1nc2c(Cl)cccc2s1,inactive
2,O=C(c1ccc(C(F)(F)F)cc1)N1CCC(c2noc(-c3ccc(S(=O)(=O)N4CCCC4)cc3)n2)CC1,inactive
3,CCc1ccccc1NC(=S)N(CCCN1CCOCC1)Cc1cccs1,"inconclusive [inhibitor, full curve, poor fit]"
4,O=C(CCc1nc2cccnc2n1Cc1cccs1)Nc1cccc(C(F)(F)F)c1,"inconclusive [inhibitor, single point]"
5,CN(Cc1ccccc1)C(=O)CNC(=O)C12CC3CC(CC(C3)C1)C2,"inconclusive [inhibitor, single point]"
6,CCCN(CCC)S(=O)(=O)c1ccc(Cl)c(OC)c1,"inconclusive [inhibitor, single point]"
7,CC1CCc2sc(C(=O)N/N=C/C3CCCCC3)cc2C1 (configuration not stated),inactive
8,CN(Cc1ccccc1)C(=O)c1ccc(NC(=O)Cc2ccc([N+](=O)[O-])cc2)cc1,"inconclusive [inhibitor, partial curve, poor fit]"
9,CSc1sc(C(=O)N2CCc3ccccc32)cc1S(=O)(=O)C(C)C,inactive
10,CCOc1cc(CC(=O)N[C@@H](CC(C)C)c2ccccc2N2CCCCC2)ccc1C(=O)O,inactive
11,COc1ccc(OC)c(NC(=O)C2(C)CCN2C(=O)C2(c3ccc(Cl)cc3)CCC2)c1 (configuration not stated),"inconclusive [inhibitor, single point]"
12,CC(Sc1nnnn1-c1ccccc1)C(=O)Nc1ccc(N2CCN(C)CC2)cc1 (configuration not stated),"inconclusive [inhibitor, full curve, poor fit]"
13,Cc1ccc(OCC(=O)Nc2ccc3c(c2)nc(CCN2CCN(C)CC2)n3C)cc1,"inconclusive [inhibitor, single point]"
14,CCOC(=O)c1ccc(NC(=O)Cn2nc(SC)c(S(=O)(=O)c3ccc(Cl)cc3)c2N)cc1,"inconclusive [inhibitor, partial curve, poor fit]"
15,c1ccc(CN=C(NCc2ccccc2)NCc2ccccc2)cc1,"inconclusive [inhibitor, single point]"
16,Cc1cccc(C)c1NC(=O)c1ccc2c(c1)N(Cc1cccc(Cl)c1)C(=O)c1ccccc1S2=O (configuration not stated),"inconclusive [inhibitor, partial curve]"
17,CC(C)Cn1c(N2CCN(CC(=O)Nc3ccc(Cl)cc3)CC2)nc2ccccc21,active: 10 µM
18,COc1ccccc1-c1ccc(SCc2ccc(F)cc2)nn1,"inconclusive [inhibitor, single point]"
19,CC1=C(C(=O)N(C)C)CC(CC(=O)NCc2cccc3ccccc23)C(=O)N1CCC1=CCCCC1 (configuration not stated),"inconclusive [inhibitor, single point]"
20,Cn1c(C(=O)Nc2ccc(Cl)cc2)cc2cc(Cl)ccc21,inactive
21,Cc1ccsc1CCN1C(=O)N(c2ccccc2)C(=O)C1CC(=O)Nc1ccc(F)cc1 (configuration not stated),"inconclusive [inhibitor, single point]"

row,Compound,Potency
1,O=C(O)c1ccc2c(=O)n3c(nc2c1)/C(=C/c1cccc(Cl)c1Cl)CCCC3,"inconclusive [inhibitor, single point]"
2,Cc1cc(N(C)C)nc(Nc2ccccc2)n1,"inconclusive [inhibitor, partial curve, poor fit]"
3,COc1ccccc1N1CCN(C(=O)C2CCCN(c3ncnc4c3nc3n4CCCCC3)C2)CC1 (configuration not stated),"inconclusive [inhibitor, partial curve, poor fit]"
4,CCC(ONc1ccccc1C(F)(F)F)(C(=O)NN(C)C)c1ccccc1 (configuration not stated),"inconclusive [inhibitor, single point]"
5,O=C(COC(=O)CCc1c[nH]c2ccccc12)Nc1cccc(Cl)c1,inactive
6,Cc1ccc(N2C(=O)N(CC(=O)Nc3cc(F)ccc3C)C(=O)C2C)cc1 (configuration not stated),"inconclusive [inhibitor, single point]"
7,O=C(CC1N=C2c3ccccc3N=C(SCc3ccccc3F)N2C1=O)NCCc1ccccc1 (configuration not stated),"inconclusive [inhibitor, single point]"
8,CN(Cc1ccc2nonc2c1)Cc1nc(Cc2cccc(F)c2)no1,"inconclusive [inhibitor, single point]"
9,COc1cccc(C2C(C(=O)c3cc4ccccc4o3)=C(O)C(=O)N2c2cc(C)on2)c1 (configuration not stated),"inconclusive [inhibitor, single point]"
10,O=C(C1CCN(S(=O)(=O)c2ccc(Cl)cc2)CC1)N1CCCCCCC1,"inconclusive [inhibitor, partial curve, poor fit]"
11,O=C(CSc1nc2ncc(Br)cc2[nH]1)Nc1ccccc1-c1ccccc1,"inconclusive [inhibitor, single point]"
12,CCn1c2ccccc2c2cc(NS(=O)(=O)c3ccc(C)cc3)ccc21,"inconclusive [inhibitor, partial curve, poor fit]"
13,CCC(CC)c1nnc(NC(=O)C2COc3ccccc3O2)s1 (configuration not stated),"inconclusive [inhibitor, single point]"
14,CCCCC(=O)Nc1cc(C)c(O)c(-c2nc3ncccc3o2)c1,inactive
15,CC(C)(C)Cc1nnc(NC(=O)Cc2ccc([N+](=O)[O-])cc2)s1,inactive
16,CCC(Oc1ccccc1)C(=O)Nc1nc2ccccc2[nH]1 (configuration not stated),"inconclusive [inhibitor, single point]"
17,CCN1C(=O)CC(Sc2ccccc2C(=O)O)C1=O (configuration not stated),inactive
18,Cc1cc(C)c2nc(-c3ccccn3)cc(C(=O)Nc3ccc(S(=O)(=O)Nc4onc(C)c4C)cc3)c2c1,"inconclusive [inhibitor, full curve, poor fit]"
19,O=c1c2cnn(-c3ccc(Cl)cc3)c2ncn1Cc1ccc(Cl)cc1Cl,inactive
20,CCn1[nH]c(=O)c(=Nc2c(C)n(C)n(-c3ccccc3)c2=O)cc1-c1ccc(Cl)cc1,"inconclusive [inhibitor, single point]"
21,CC(C)CC(NC(=O)OC(C)(C)C)c1cn([C@@H](Cc2cc3ccccc3[nH]2)C(=O)N2CCN(C(=O)OC(C)(C)C)CC2)nn1 (some centres not stated),"inconclusive [inhibitor, partial curve]"
